From PubChem BioAssay AID1240 (Sanford-Burnham Center for Chemical Genomics, 2008) come the findings set out here.

SMILES strings stand for the structures. Out of some 50,000 compounds screened, about 800 (1.6%) showed an effect of 50% or more. This is one part of the list.

The assay deals with Bcl-2-like protein 10 (Homo sapiens) (UniProt Q9HD36). Briefly: TR3 peptide-Bcl-B binding displacers, biochemical primary FP assay, phenotype converters (AID 1240).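 Also: 0% = Bcl-B with tracer peptide and DMSO and 100% = tracer peptide lacking Bcl-B.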 The following applies: GST-Bcl-B / FITC-TR3 peptide fluorescence polarization; stronger effect = higher value; compound at 3.75 mg/L. (Polarisation of emitted light reports the rotation of a fluorescent probe.)
UniProt Q9HD36, sequence (Q9HD36 whole entry, looked up): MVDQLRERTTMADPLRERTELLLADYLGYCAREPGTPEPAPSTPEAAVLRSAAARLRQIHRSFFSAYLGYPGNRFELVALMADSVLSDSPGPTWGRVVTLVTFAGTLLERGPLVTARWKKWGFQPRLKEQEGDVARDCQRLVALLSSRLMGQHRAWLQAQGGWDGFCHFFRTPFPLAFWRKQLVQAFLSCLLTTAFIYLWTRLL
As to `Cc1cc2nc(-c3cc(NC(=O)COc4ccc(Cl)cc4Cl)ccc3O)oc2cc1C`, the displacement amounted to 11.2%. The same measure for `O=C(/C=C/c1ccccc1)C1=C(O)C(=O)N(c2cccc(C(F)(F)F)c2)C1c1ccc([N+](=O)[O-])cc1` (stereo unspecified): 7%; for `Cc1ccccc1NC(=O)c1c(NC(=O)Cc2ccccc2)sc2c1CCC(C)C2` (stereo unspecified): -4.9%.

In the case of `Cc1cccc(OCC(=O)Nc2nc3ccccc3s2)c1`, the displacement is -10.5%. As for `O=C1OC(c2ccccc2F)=N/C1=C\c1cccc2ccccc12`, the figure is 78.4%. The same measure for `CCC1=NN(C(=O)c2cccnc2)C(O)(c2ccncc2)C1` (stereo unspecified): -12%; for `O=C(c1ccc(Br)o1)N1CCN(c2ccc([N+](=O)[O-])cc2)CC1`: -7.2%. The same measure for `O=C(O)c1cc(S(=O)(=O)N2CCCCC2)ccc1O`: -1.5%; for `COC(=O)C1CC(=O)OC1c1ccccc1` (stereo unspecified): 15.9%. As for `Cc1cc(OC2CCCCC2)nc(-c2ccccc2O)n1`, the displacement stood at 2.6%. Regarding `CCOC(=O)c1ccccc1NC(=O)C1CN(S(=O)(=O)c2ccccc2)CCN1S(=O)(=O)c1ccccc1` (stereo unspecified), the displacement came to 0.1%. The same measure for `Clc1ccc(C=NN2CCN(Cc3ccccc3Cl)CC2)cc1`: -5.4%; for `CCN(C1CCCCC1)S(=O)(=O)c1ccc(F)cc1`: -5.9%.

With `CC(=O)CC(=O)Nc1cccc([N+](=O)[O-])c1`, the displacement was 1.9%. The same measure for `O=C(COc1ccccc1)NNC(=O)COc1ccc(Br)cc1`: 4.8%; for `COC(=O)c1ccccc1NS(=O)(=O)c1ccc(NC(C)=O)cc1`: 11.6%; for `O=C(Nc1ccc2oc(-c3cccc(Br)c3)nc2c1)c1ccc([N+](=O)[O-])cc1Cl`: 5.9%. As for `CCC1CCc2c(sc(NC(=O)C3C4CCC(C4)C3C(=O)O)c2C(=O)OC(C)C)C1` (stereo unspecified), the figure is 2.3%; as for `O=C(O)CCN=C1CCc2ccccc2N1`, -1.7%. In the case of `N/C(=N\OC(=O)c1ccc(Br)cc1)c1cccnc1`, the displacement is -1.1%.

With `CC(=O)Nc1ccc(S(=O)(=O)Nc2ccc(O)c3ccccc23)cc1`, the displacement was 9.4%. The same measure for `CCCNC(=O)COc1ccc(C)cc1Br`: 6.6%. As for `Cc1ccc(-c2ccc(OCC(=O)Nc3cccc([N+](=O)[O-])c3)cc2)cc1`, the figure is -2.6%; as for `Cc1c(C(=O)Nc2cccc(-c3nc4ncccc4o3)c2)cccc1[N+](=O)[O-]`, -1.3%. As for `CCCOc1ccc(N2C(=O)CC(N3CCN(C(=O)OCC)CC3)C2=O)cc1` (stereo unspecified), the figure is -3%.

In the case of `O=C1C=C(c2cccc([N+](=O)[O-])c2)C(=O)N1c1ccc(Cl)cc1`, the displacement was -4.3%. As for `CC(C)=N/N=C1/NC(=O)C(CC(=O)Nc2ccc(C)c(C)c2)S1` (stereo unspecified), the displacement is -27.3%. As for `O=C1C(Cl)=C(Nc2ccc(Nc3ccccc3)cc2)C(=O)c2ccccc21`, the figure is 16.4%; as for `Cc1ccc(N2C(=O)C3C4C=CC(C5CC45)C3C2=O)cc1Cl` (stereo unspecified), 2.9%; as for `CCc1nnc(NS(=O)(=O)c2ccc(NS(=O)(=O)c3ccc(C)cc3)cc2)s1`, -3.9%. Take `Cc1ccc(C(=O)NCc2ccccn2)cc1[N+](=O)[O-]`: the displacement is -17.4%. The same measure for `Cc1nc2c(Cl)cccc2c2c1CC(C(C)(Cl)Br)O2` (stereo unspecified): -3.8%; for `O=C(CSc1nc2ccccc2[nH]1)Nc1ccc(Cl)c(Cl)c1`: -10.3%; for `CCCn1c(/N=C(\C)c2cc(Cl)ccc2O)nc2ccccc21`: 4.5%. As for `COc1ccc(C(=O)Nc2ccc3c(c2)OCO3)cc1`, the figure is -4.2%; as for `CCN(CC)c1ccc(/C=N\NC(N)=O)cc1`, 14.9%; as for `COc1ccc(CNC(=O)c2ccc([N+](=O)[O-])o2)cc1`, -10.3%.

Regarding `Cc1cn(S(=O)(=O)c2ccc3ccccc3c2)cn1`, the displacement was found to be 14.1%. The same measure for `O=C1C2C3C=CC(O3)C2C(=O)N1c1cc(C(F)(F)F)ccc1Cl` (stereo unspecified): 5.9%; for `CC(=O)NC1(Nc2ccc(C)cc2)C(=O)c2ccccc2C1=O`: -0.6%; for `COc1ccc2nc(SCC(=O)Nc3ccc(/C=C/c4ccccc4)cc3)[nH]c2c1`: 6.3%. As for `CCc1c(C)nc2[nH]nc(-c3ccccc3OC)n2c1=O`, the figure is -9.8%. As for `CC(C)c1ccc(CNc2cc(N3CCN(S(C)(=O)=O)CC3)ccc2[N+](=O)[O-])cc1`, the figure is -4.6%. In the case of `COc1ccc(C(=O)N2CCN(C(=O)COc3ccccc3)CC2)cc1`, the displacement was found to be 1.7%. The same measure for `Cc1nc2cc(S(N)(=O)=O)ccc2n1-c1ccccc1`: 14.4%. The same measure for `COCC(=O)Nc1cc(Cl)ccc1C`: -1.2%; for `Cc1ccc(/C(N)=N/OC(=O)c2cccc([N+](=O)[O-])c2C)cc1`: 5.5%. With `O=C1CC(Nc2ccccc2)C(=O)N1c1ccc(N2CCOCC2)cc1` (stereo unspecified), the displacement is -3.8%. As for `CCCC(C)NC(=O)c1ccc(Cl)cc1Cl` (stereo unspecified), the figure is 0.9%; as for `CCOc1ccc(-c2csc(N)c2C(=O)OC)cc1`, -7.2%.

Consider `Cc1c(NC(=O)c2c(Cl)cccc2Cl)c(=O)n(-c2ccccc2)n1C`, for which the displacement turned out to be 15.1%.

Regarding `COc1cc(OC)cc(C(=O)Nc2ccc(-c3ccc(NC(=O)c4cc(OC)cc(OC)c4)c(OC)c3)cc2OC)c1`, the displacement amounted to 10.4%. The same measure for `COc1ccc(Br)cc1/C=N/n1cnnc1`: 13.3%; for `CC1Cc2ccccc2N1C(=O)c1ccc(N2CCCCC2)c([N+](=O)[O-])c1` (stereo unspecified): -2%; for `O=S(=O)(Nc1nc2ccccc2s1)c1cccs1`: -4.6%. For `Cc1ccc(C(C)C)c(OCCNS(C)(=O)=O)c1`, the displacement was determined as 1%.

For `O=C(O)c1cc(NC(=O)c2cccc(C(=O)Nc3cc(C(=O)O)cc(C(=O)O)c3)c2)cc(C(=O)O)c1`, the displacement is 3.6%. The same measure for `CC(CCc1ccc(C(=O)CCCC(=O)O)s1)CC(=O)O` (stereo unspecified): 5.3%. As to `COc1ccccc1N1C(=O)CC(S/C(N)=N/N=C(\C)c2ccc(F)cc2)C1=O` (stereo unspecified), the displacement is -9.1%. As for `O=C(O/N=C/c1ccc([N+](=O)[O-])o1)c1ccccc1Br`, the figure is 0.9%; as for `N#CC1=C(SCC(N)=O)NC(=O)CC1c1ccsc1` (stereo unspecified), -2.1%. `COc1ccc(S(=O)(=O)N2CCSC2c2ccccc2Cl)cc1` (stereo unspecified): the displacement was 11.1%. The same measure for `CC(Oc1ccc(Cl)cc1Cl)C(=O)N1CCN(c2ccccc2)CC1` (stereo unspecified): -8.4%; for `NC(=O)SCC(=O)Nc1cccc(Cl)c1`: 5.1%; for `CCc1ccc(N2N=C(C)/C(=C\c3cc(Br)c(O)c(OC)c3)C2=O)cc1`: 14%. The same measure for `CCN(CC)c1ccc(/C=C/C(=O)C23CC4CC(CC(C4)C2)C3)cc1`: -6.1%; for `COc1cccc(NC(=O)COc2ccc(C)cc2C)c1`: 10.9%; for `O=C(O)CN1C(=O)/C(=C/c2c(Cl)cccc2Cl)SC1=S`: 9.9%. Take `CN(c1ccccc1)c1ccc(/C=C2/C(=O)ON=C2c2ccc([N+](=O)[O-])cc2)cc1`: the displacement was -1.7%. As for `Cc1cc(C)nc(SCC(O)COCc2ccccc2)n1` (stereo unspecified), the figure is 0%; as for `COc1cccc(NC2=C(Cl)C(=O)N(c3ccccc3C)C2=O)c1`, 3.7%.
